Results reported in paper PMC6919601, “Identification of Plasmodium dipeptidyl aminopeptidase allosteric inhibitors by high throughput screening” (PLoS ONE, 2019).
The whole screen tested about 110,000 compounds, of which about 230 (0.21%) showed an effect of 50% or more. The list shows a part of the results.

Biological target: DPAP1 (Plasmodium falciparum, UniProt Q8IIJ9)
Experiment: primary screen, percent inhibition; read by cleavage of a fluorogenic dipeptide substrate; higher = more effect of the substance
Parameters: species or system P. falciparum D10 trophozoite lysates; single well
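Further: 30 min substrate incubation versus DMSO and 10 µM JCP410 controls.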

DPAP1, sequence (Q8IIJ9 whole entry, looked up): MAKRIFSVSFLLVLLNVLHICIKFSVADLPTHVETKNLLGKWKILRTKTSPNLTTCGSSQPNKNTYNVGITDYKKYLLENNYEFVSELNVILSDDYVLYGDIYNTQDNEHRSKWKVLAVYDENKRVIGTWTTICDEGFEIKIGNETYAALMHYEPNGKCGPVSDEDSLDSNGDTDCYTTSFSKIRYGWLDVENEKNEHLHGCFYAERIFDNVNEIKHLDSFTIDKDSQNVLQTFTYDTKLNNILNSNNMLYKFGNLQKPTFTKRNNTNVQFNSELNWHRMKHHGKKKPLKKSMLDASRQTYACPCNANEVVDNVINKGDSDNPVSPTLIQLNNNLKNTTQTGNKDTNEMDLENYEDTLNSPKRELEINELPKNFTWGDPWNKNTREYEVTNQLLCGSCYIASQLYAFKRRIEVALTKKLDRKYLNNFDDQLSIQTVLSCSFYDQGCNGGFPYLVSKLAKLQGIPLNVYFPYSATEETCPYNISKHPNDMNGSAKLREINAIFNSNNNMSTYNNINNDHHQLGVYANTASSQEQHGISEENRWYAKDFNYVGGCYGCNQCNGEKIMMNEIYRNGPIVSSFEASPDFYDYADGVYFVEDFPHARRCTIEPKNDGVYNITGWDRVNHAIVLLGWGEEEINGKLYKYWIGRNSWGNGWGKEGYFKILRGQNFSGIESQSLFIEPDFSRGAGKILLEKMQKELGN

SMILES	% Inhibition @ 10 uM
CCN(CCO)Cc1cc2cc(Br)ccc2s1	1.03%
CC(C)c1ccc(/C=C/C(=O)Nc2ccccc2Br)cc1	-2%
CCOc1ccc(Br)cc1/C=C/c1nc(O)c([N+](=O)[O-])c(O)n1	-4.21%
Nc1c(-c2nc(-c3cccs3)no2)nnn1-c1ccccc1F	4.48%
O=C(Nc1nnc(C2CCCC2)s1)C(=O)c1c[nH]c2ccccc12	-2.84%
CCCNC(=O)NCc1cccn1Cc1ccccc1	5.41%
Cc1cc(OCC(=O)Nc2cc(Cl)ccc2Cl)ccc1Br	-5.11%
Cc1c(C)n(C(=O)CSc2ccccn2)c2ccccc12	2.56%
N#CCNC(=O)[C@H](Cc1ccccc1)NC(=O)N1CCN(Cc2ccccc2)CC1	-3.97%
COc1ccc(-c2cn3ccccc3c2S(=O)(=O)c2ccc(F)cc2)cc1OC	-1.71%
Cc1ccc(C2=NN(C(=O)CCCC(=O)O)C(c3ccco3)C2)cc1 (stereo not drawn)	4.67%
COc1ccc(/C=C(/NC(=O)c2ccco2)C(=O)Nc2ccc(C(=O)O)cc2)cc1	-2.87%
O=[N+]([O-])c1ccc(Nc2nc(-c3ccccc3)cc(-c3ccc(F)cc3)n2)cc1	-3.74%
Cc1cc(C)n2nc(NCc3ccc(F)cc3)nc2n1	-0.671%
Cc1cc(C)n2nc(NCc3ccccc3C)nc2n1	-0.671%
CC(=O)N(Cc1ccc(S(N)(=O)=O)cc1)C1CC(=O)N(c2ccccc2)C1=O (stereo not drawn)	-9.07%
C=CCn1c(SCC(=O)Nc2sc3c(c2C#N)CCC3)nc2sc3c(c2c1=O)CCC3	-3.41%
CCc1ccc(CNC(=O)c2cc(O)nc3ccc(S(=O)(=O)N4CCCCC4C)cc23)cc1 (stereo not drawn)	3.66%
O=C(Nc1cccc(-c2cn3ccccc3n2)c1)c1ccc(Br)cc1	3.05%
CC(C)c1ccc(S(=O)(=O)/N=C2/C=C(Br)C(=O)c3ccccc32)cc1	5.12%
COc1cccc(CN2CCN(C(=O)c3ccc(F)cc3)CC2)c1OC	-8.95%
CN(C)CCN1CC2CCc3[nH]c4ccccc4c3C2C1 (stereo not drawn)	-1.66%
COC(=O)c1cc(S(=O)(=O)NCc2ccc(F)cc2)cn1C	0.655%
Cc1cccc(Oc2nc3c(c(=O)n(Cc4ccccc4F)c(=O)n3C)n2C)c1	-3.5%
Cc1nn(-c2ccccc2)c2c1N(CC(=O)NC1CCN(Cc3ccccc3)CC1)C(=O)CS2	2.14%
CCCN(CCC)S(=O)(=O)c1ccc(/C(O)=C(\C#N)c2nc3ccccc3[nH]2)cc1	-2.6%

SMILES	% Inhibition @ 10 uM
c1ccc(-c2cc(-c3ccco3)no2)cc1	-5.23%
CCOc1ccc([N+]2=C3CCCCCN3C(O)(c3ccc(OC)c(OC)c3)C2)cc1 (stereo not drawn)	3.83%
CCn1ncc(Br)c1C(=O)Nc1cc(C)cc(C)c1	-4.89%
CCOc1ccc(N2C(=O)CC(NCc3ccccc3C(F)(F)F)C2=O)cc1 (stereo not drawn)	2.82%
O=[N+]([O-])c1ccccc1-c1ccc(CN2CCCCCC2)o1	1.9%
CCNC(=O)c1ccc2c(c1)c(C)c(C)n2CC	-0.658%
COc1ccc(C2N3CCCN23)cc1 (stereo not drawn)	-4.74%
CCOC(=O)c1c(C)[nH]c(NC(=O)NCc2cccnc2)c1C	-0.671%
N#Cc1nc(COc2ccc(Br)cc2)oc1NCCN1CCOCC1	-1.38%
COc1cccc(OC)c1C(=O)Nc1ccccc1-n1cccc1	4.74%
COc1ccccc1NC(=O)C1=C(C)N=C2CCCC(O)=C2C1c1ccc(OC)c(OC)c1 (stereo not drawn)	2.51%
CC12CCC3(CO)COC(c4ccccc4O1)C2C3 (stereo not drawn)	1.29%
COc1cccc2cc(C(=O)NC(C)c3ccc(-n4ccnc4)cc3)c(=O)oc12 (stereo not drawn)	-0.0678%
Cc1nc2cc(NC(=O)NCc3ccco3)ccc2n1C	-8.92%
O=C(COc1ccc(Cl)cc1Cl)Nc1cccnc1	-3.24%
O=C(Cn1nc(C(F)(F)F)c2c1CCCC2)NCc1ccc(Cl)cc1	-1.18%
Cn1c(=O)n(Cc2ccco2)c(=O)c2sc3ccccc3c21	-1.01%
COC(=O)c1ccc(-c2nc(-c3ccncc3)no2)cc1	-10%
CCC(C)c1ccc(-c2csc(N)n2)cc1 (stereo not drawn)	-0.865%
CCOc1ccc(CN2CCN(c3ccccc3OC)CC2)cc1	3.16%
COc1cc(/C=C2/NC(=S)NC2=O)ccc1OCCC(C)C	2.92%
c1ccc2c(OCCN3CCOCC3)cccc2c1	-4.01%
COc1ccc(C2c3ccc4c(OC)cccc4c3Oc3ncn4nc(-c5ccncc5)nc4c32)cc1 (stereo not drawn)	-1.05%
Cc1nn(C)cc1CN(C)C(=O)c1cc2nc(-c3ccco3)cc(C(F)(F)F)n2n1	0.64%
CC(C)NC(=O)c1[nH]nc2ccccc12	4.61%
CC(CNc1nc2ccccc2n2nnnc12)c1ccccc1 (stereo not drawn)	2.76%

SMILES	% Inhibition @ 10 uM
Cc1nn(C)cc1C1C2=C(CC(C)(C)CC2=O)N(c2ccccc2)C2=C1C(=O)CC(C)(C)C2	-2.28%
O=C1N=C(NS(=O)(=O)c2ccccc2)S/C1=C/c1ccco1	-0.467%
CS(=O)c1ccc2c(c1)C(N1CCN(CCO)CC1)Cc1ccccc1S2 (stereo not drawn)	-2.8%
CCCc1cc(=O)oc2cc(OCc3ccc(C(=O)O)cc3)ccc12	7.75%
CCCCCC(=O)Nc1ccc(NC(=O)C(C)C)c(OC)c1	4.67%
CCOC(=O)/C=C(\C)N1N=C2c3cc(OC)ccc3CCC2C1c1ccc(OC)cc1 (stereo not drawn)	-4.49%
CC(C)Oc1ccccc1/C=C1\SC(Nc2ccc(C(=O)O)cc2)=NC1=O	2.49%
Cc1ccc2c(c1)C(=O)c1c(C(=O)O)cccc1-2	2.55%
Clc1cc2c(cc1CSc1nc3cccnc3[nH]1)OCO2	-13%
CCc1nc(NC(=O)Cc2csc(C)n2)sc1C(=O)OC	-1.11%
Cc1ccc2c(c1)c1c3n2CCN(Cc2ccccc2)C3CCC1 (stereo not drawn)	1.26%
COc1ccc(/C=C2\N=C(c3ccccc3Cl)OC2=O)cc1OC	-6.05%
CC(C)(C)c1ccc(CNCc2ccco2)cc1	4.28%
O=C(Cc1coc2ccc3ccccc3c12)N1CCc2ccccc2C1	-5.14%
CCn1c2ccccc2c2nnc(N3CCC(Cc4ccccc4)CC3)nc21	-1.87%
COc1ccc(CN2CCN(c3ccc(Cl)cc3)CC2)cc1Br	-5.57%
CC1(C)CC(=O)C2=C(C1)N(Cc1ccccc1)C(N)=C(C#N)C2c1ccc(Cl)cc1 (stereo not drawn)	2.8%
CN(Cc1ccccc1)Cc1c[nH]c2ccccc12	-1.41%
Cc1ncc(CO)c(/C=N/NC(N)=S)c1O	0.561%
O=C(Nc1c(C(=O)c2ccc(F)cc2)oc2ccccc12)c1ccccc1	-4.78%
COc1ccc(-c2nc(SCC(=O)NCc3ccco3)c(-c3ccc(Cl)cc3)[nH]2)cc1OC	1.85%
O=C(Cn1c(=O)sc2ccccc21)Nc1ccc(Cl)cc1Cl	3.68%
CCOc1cccc(=O)c2c(C)n(CC3CCCO3)c(C)c12 (stereo not drawn)	-3.75%
CN1CCN(CC(=O)Nc2cc(N(C)C)nc3ccccc23)CC1	-1.1%
O=C(COc1ccc2ccccc2c1)Nc1ccc(Cl)cn1	-4.75%
O=C1N(c2ccc(Br)cc2)C2CS(=O)(=O)CC2N1c1ccc(Cl)c(Cl)c1 (stereo not drawn)	14.8%

SMILES	% Inhibition @ 10 uM
COc1ccc(CNCc2ccc(OC)c(OC)c2)cc1OC	-5.04%
N=C1N=C(Nc2cccc(C(F)(F)F)c2)c2ccccc21	-0.68%
CCCCCOc1ccc(/C=C/C(=O)Nc2nccs2)cc1OC	23.7%
CCOc1ccc(OCc2cccc(C(=O)O)c2)cc1	5.92%
COc1cccc(NC(=O)CN(c2ccc(Br)cc2)S(C)(=O)=O)c1	1.89%
COc1ccc(-c2nnc3n(CCCOC(C)C)c(=O)c4ccccc4n23)c(O)c1	4.86%
COc1ccc(Br)cc1CNC(=O)c1cc(CC(C)C)on1	-1.7%
Cc1c(C(=O)NCCCN2CCOCC2)sc2nc3n(c(=O)c12)CCCCC3	-4.74%
COc1cccc2c1cc1c(=O)n(CC(=O)NCCCN3CCCC3=O)nc(C)n12	4.84%
CCOc1cc(C)c(C(C)C)cc1S(=O)(=O)NCc1cccnc1	-4.86%
O=C1CN(S(=O)(=O)CCOc2ccccc2)CC(=O)N1CCc1ccccc1	0.0345%
COc1ccc(/C=C(\C#N)c2nc3ccccc3s2)cc1Br	2.45%
OC(COc1ccc(F)cc1)CN(Cc1ccccc1)CC(O)COc1ccc(F)cc1 (stereo not drawn)	-4.02%
CC1CCCN(Cc2nc3c(c(=O)n(C)c(=O)n3C)n2Cc2ccc(F)cc2)C1 (stereo not drawn)	1.23%
Cc1ccc2[nH]c(C)c(/C=c3\sc4nc5ccccc5n4c3=O)c2c1	-0.178%
Nc1ccc2nc(SCC(=O)c3ccc(F)cc3)sc2c1	2.17%
Cc1ccc2nc(NCCC3=CCCCC3)c3nnnn3c2c1	3.8%
COc1ccc(S(=O)(=O)N2CCCN(S(=O)(=O)c3ccc(OC)c(C)c3C)CC2)c(C)c1C	2.05%
CC1=Nc2cc(C)ccc2NC(c2ccccc2)=C1	-2.91%
CCOc1cc(CNc2cc(C)ccc2C)ccc1OC	-0.446%
Cn1cccc1Cc1nnc(SCC(=O)NCC2CCCO2)n1CCc1ccccc1 (stereo not drawn)	2.74%
CC(C)(C)C(=O)NC(c1ccccc1)c1c(O)ccc2ccccc12 (stereo not drawn)	1.33%
CC1=C(c2cccc(Br)c2)S(=O)(=O)N=C1Nc1ccc(Br)cn1	-1.08%
CC1=C(C(=O)OCC(Cl)(Cl)Cl)C(c2ccc(Cl)cc2Cl)NC(=O)N1 (stereo not drawn)	-1.56%
